Drawing on publication PMC7819943, “Rice protein-binding microarrays: a tool to detect cis-acting elements near promoter regions in rice”, this text covers binding signal for 42 sequences.

This is one part of the list.

This assay concerns the target T1, OsWOX13 (Oryza sativa, UniProt Q5QMM3 1-267).
T1 sequence: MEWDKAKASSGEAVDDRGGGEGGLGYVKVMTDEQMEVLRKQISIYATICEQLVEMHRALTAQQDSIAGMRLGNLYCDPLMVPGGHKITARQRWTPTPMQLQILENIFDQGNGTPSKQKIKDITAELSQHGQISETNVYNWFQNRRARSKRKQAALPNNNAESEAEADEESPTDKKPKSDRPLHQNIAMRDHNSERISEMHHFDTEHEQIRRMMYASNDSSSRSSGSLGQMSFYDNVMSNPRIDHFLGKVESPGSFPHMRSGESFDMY
The assay can be described thus: protein-binding microarray (RPBM); PBS, 2% BSA, 51.3 ng/ul salmon testes DNA, 50 uM zinc acetate, 200 nM TF, 25 C, 1 h; high values mean tight binding. The following applies: protein: recombinant; tags: N-terminal polyhistidine and DsRed monomer fusion (pET32a); label: CyDye5-dUTP incorporated in the synthesized complementary strand; 3' TTTTT single-stranded linker to array surface; dsDNA, one strand shown. A digest of the protocol: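 For the binding signal, per-feature fluorescence intensity was read in arbitrary units on an Axon 4000B scanner. Before scanning, a 2% BSA-blocked custom Agilent array made double-stranded with Cy5-dUTP was washed after 1 h at 25 °C with 200 nM protein and 50 µM zinc acetate. The proteins were Ni–NTA-purified transcription factors with N-terminal polyhistidine and DsRed fusions, expressed in E. coli BL21-CodonPlus.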
On to “TTACAACAAGATGTTACATGATTATATTCTGATTATGGGGCGGAGTCACCTAGTGCAG”, for which the binding signal is 5080 fluorescence intensity (a.u.).

Turning to “AATTTTATCATACTAATTAAATAATTACTTTTGCATGAACCGGAGTCACCTAGTGCAG”, the binding signal was 11000 fluorescence intensity (a.u.).

For the sequence “AATCGTAATCAAAACCATCAGTTTAACTGCAGCTCCAGCACGGAGTCACCTAGTGCAG”, the binding signal is 4200 fluorescence intensity (a.u.).

As to “CCAATGATTTGGCTTTAATCCAAATATACACTATCAATATCGGAGTCACCTAGTGCAG”, the binding signal was 16000 fluorescence intensity (a.u.).

On to “TAATGTGATTTGTGTCCTTTCCTGTTTCACGAGAAGAAAACGGAGTCACCTAGTGCAG”, for which the binding signal is 10200 fluorescence intensity (a.u.).

Regarding “ATCAATCACAATCCACAAATTAATCACAAAATCATCCCTACGGAGTCACCTAGTGCAG”, the binding signal is 14600 fluorescence intensity (a.u.).

Consider “GAATCTTATTGTACTGTGTCTGGGCCATATATGCAGCCCGCGGAGTCACCTAGTGCAG”, for which the binding signal was 4030 fluorescence intensity (a.u.).

As to “CTTCTCCTTTTCGATCAATCAGTCTCTTTCTCTTTGTCATCGGAGTCACCTAGTGCAG”, the binding signal is 5190 fluorescence intensity (a.u.).

As for “ATACTCTAGATAATAATTGCTAGTGGATGATGATGTGGCACGGAGTCACCTAGTGCAG”, the binding signal was 4420 fluorescence intensity (a.u.).

For “CGCCGGAATGATTGTTGCAGCGCAGCAACACAGGCTAGCACGGAGTCACCTAGTGCAG”, the binding signal was 9030 fluorescence intensity (a.u.).

For “TGATCTCGTCTCACCAGTTAATTAACTTTAGTGTAATACTCGGAGTCACCTAGTGCAG”, the binding signal is 6880 fluorescence intensity (a.u.).

As for “ATCGTCATGATAGACTGGCTAGACGAGCTACTCTCGTTCTCGGAGTCACCTAGTGCAG”, the binding signal is 22700 fluorescence intensity (a.u.).

For “CGTGATTAGCGAGTTGCCATGGATGAGCCAGCAAGACGTGCGGAGTCACCTAGTGCAG”, the binding signal was 36200 fluorescence intensity (a.u.).

Turning to “CCATGATTGTTCATACCAATAATGGGCGCAAATGGAAGACCGGAGTCACCTAGTGCAG”, the binding signal is 41400 fluorescence intensity (a.u.).

Regarding “GCTAATTGGGCGATGACGGTGTCCTTGCTGGGCTGGGCCCCGGAGTCACCTAGTGCAG”, the binding signal is 48800 fluorescence intensity (a.u.).

Consider “TTATTGTATACATTGATTTTCAATTAACTTTCAAACTTGACGGAGTCACCTAGTGCAG”, for which the binding signal is 10300 fluorescence intensity (a.u.).

Regarding “TAATTAATGATCGATGATCTGACTCTACGCTTCGTTTACTCGGAGTCACCTAGTGCAG”, the binding signal was 6970 fluorescence intensity (a.u.).

For the sequence “AAAAGAAACTGATAACTGTCACAACATCCTAACCAACCCACGGAGTCACCTAGTGCAG”, the binding signal was 3260 fluorescence intensity (a.u.).

As for “AGTATATAATAGATAGATAGATAGATAGATAGCCTAGTTGCGGAGTCACCTAGTGCAG”, the binding signal was 26000 fluorescence intensity (a.u.).

For “ATTGTTACATGTAATCAAGGGGTGATGGGCATATTCACAGCGGAGTCACCTAGTGCAG”, the binding signal was 7040 fluorescence intensity (a.u.).

Turning to “AGGTGATTATTACTCCCTCCGTTTCAAAATGTTTGACACCCGGAGTCACCTAGTGCAG”, the binding signal was 26700 fluorescence intensity (a.u.).

“CTTAATTAACACTCGTAAGATTGACAAATAGTTGAATATCCGGAGTCACCTAGTGCAG”: the binding signal was 60300 fluorescence intensity (a.u.).

Turning to “ACGATGGTAAATTATAACGTAAAATATTAGCCACTGAGTGCGGAGTCACCTAGTGCAG”, the binding signal is 5240 fluorescence intensity (a.u.).

Take “AAAATAGACTTATTTTCACTATATATATGTCACCAGCCCACGGAGTCACCTAGTGCAG”: the binding signal was 4200 fluorescence intensity (a.u.).

Take “TGATTGATTATTCCGTAATCTGTAGCTAATCAGATCGGATCGGAGTCACCTAGTGCAG”: the binding signal was 39800 fluorescence intensity (a.u.).

For the sequence “AAATCCCACTAATTTGTATATATTTTACCGCGAAGAGATTCGGAGTCACCTAGTGCAG”, the binding signal is 7870 fluorescence intensity (a.u.).

Consider “TATAATTTCACATCACATATTACTCCATCTGTCCGAAAATCGGAGTCACCTAGTGCAG”, for which the binding signal was 3230 fluorescence intensity (a.u.).

As to “GCTTCAATCTATTAATATTGTTAAGAGAGGGTGAAAAGGACGGAGTCACCTAGTGCAG”, the binding signal is 13300 fluorescence intensity (a.u.).

With “CTTTGTGATTAATTAATGTGCAACATAGTTTGGTTAATTCCGGAGTCACCTAGTGCAG”, the binding signal was 17400 fluorescence intensity (a.u.).

On to “TAAATTGATGGGACTGGGCCTAGCTAACTGACTAGGCCTACGGAGTCACCTAGTGCAG”, for which the binding signal was 41800 fluorescence intensity (a.u.).

On to “GTTCTTGATGGAATTGCTGTTCATTATTCAGATTTCAGAACGGAGTCACCTAGTGCAG”, for which the binding signal was 9940 fluorescence intensity (a.u.).

As to “AAACTAATTTTACAAATAATTCGTCACCAAAACTTATTTACGGAGTCACCTAGTGCAG”, the binding signal was 7530 fluorescence intensity (a.u.).

As to “TTCACCAATCACCACAAGCTCCCCACTAAACCCGGGAGCTCGGAGTCACCTAGTGCAG”, the binding signal was 19900 fluorescence intensity (a.u.).

In the case of “CTAAACAGAAGGCACTGGTCAGTGTTTTGTTTTCTGAAGTCGGAGTCACCTAGTGCAG”, the binding signal is 5050 fluorescence intensity (a.u.).

Consider “AGCCTAATTGCTTCATGATTTAACAATGTAGTGCTACAGTCGGAGTCACCTAGTGCAG”, for which the binding signal is 52100 fluorescence intensity (a.u.).

As for “GCTTGATGACCAAGTATATATAAACATGTCAGTGATTATTCGGAGTCACCTAGTGCAG”, the binding signal is 5670 fluorescence intensity (a.u.).

Take “ATGATTAATTATTATTTTAGTGATATGCGATATACTCGTGCGGAGTCACCTAGTGCAG”: the binding signal was 65000 fluorescence intensity (a.u.).

Turning to “TTATACAATCAAATATTTAATTGTATACATGAAGCTTGTGCGGAGTCACCTAGTGCAG”, the binding signal is 25400 fluorescence intensity (a.u.).

With “TGGCTGTTAACTGGGAGATATAGATTCCTTTCCCGATTGACGGAGTCACCTAGTGCAG”, the binding signal was 7080 fluorescence intensity (a.u.).

On to “AAATTTAAGTAATTATTAATTCTTTTCCTATCATTTGATTCGGAGTCACCTAGTGCAG”, for which the binding signal is 7910 fluorescence intensity (a.u.).

Consider “ATAATGAAACTATTCCAATCATAGATGAATTCTGTTGCTTCGGAGTCACCTAGTGCAG”, for which the binding signal was 15500 fluorescence intensity (a.u.).

Consider “ATAAACCAATATATTTATCAATCATAAGATTAATATTTTACGGAGTCACCTAGTGCAG”, for which the binding signal is 7800 fluorescence intensity (a.u.).
